B1: chr7:75932113:75932114:+_ENSG00000106211_ENST00000248553|hu_hu|hu_hu_hu_mus_False|18_88 (ssRNA)
RNA: GGGAGUUCUACAGUCCGACGAUCCUGCGACCACUCAUCGGGCAACCGGGGCAGCCCGAAAGCUUGAUCGAAGAGGCGGCUGUGUGCAGGGUACCAGUCCCGGAAUGGUUCCCAGCUGCCCCGCAGGAGCAGCGAGAAGGGCACCAACAGAGGAUUGAGCAUCA
B2: 46328956_46329076_1860_CDS_ENSMUSG00000033949_ENSMUST00000037011|mouse|control|control (ssRNA)
RNA: GGGAGUUCUACAGUCCGACGAUCUGUGUAAUGGCCCACUUGGAUGCGCUCCGCAGCCAGGAGGACGUUAAAUCCAGCUCUGCUCUCCACCCGGUCUCUCUUCAGGUUCAGCAAGAGGUGCUCAGUGUUGUAGCCACACUUCUCCAACAGAGGAUUGAGCAUCA
B3: chr4:140265382:140265383:+_ENSG00000164134_ENST00000296543|hu_hu|motif|central (ssRNA)
RNA: GGGAGUUCUACAGUCCGACGAUCUUCUCUAUAGAGACCUGCUUCCCGAAGAACUUGAUUCUGAUAUAAGAGUAGUUCACGGUAUUCAUAAUCCACCUUGUCAGGGGAUGUCUGUUGUGUUUUCCUAAAUUCUUCUAAAAUCUUCAACAGAGGAUUGAGCAUCA
B4: chr10:75834556:75834557:+_ENSG00000035403_ENST00000372755|perfect_dup|FALSE|FALSE (ssRNA)
RNA: GGGAGUUCUACAGUCCGACGAUCAUUAAUUUCAGCACUCAUUUUUUCUACAGUAAAAUUGCGAUUUUUUAAAGCUUCCUCUAUGCCUUGGUUUUUUGAGUUUUUAGUUGUUACAAAAAUCUUCAUAGCUGAAAUGAGAACUGGCAACAGAGGAUUGAGCAUCA
B5: chr15:98867917:98867918:+_ENSMUSG00000043091_ENSMUST00000058914|mus_hu|motif|central (ssRNA)
RNA: GGGAGUUCUACAGUCCGACGAUCAGGGUCACAUUUCACCAUCUGGUUGGCUGGCUCAAAGCAAGCAUUGGUGAUCUCUGCGGCAGUAAGCUGUUCGUGGUAGGCUUUCUCAGCAGAGAUGACAGGGGCAUAUGUGGCCAGAGGCAACAGAGGAUUGAGCAUCA
B6: chr6:76550321:76550322:+_ENSG00000196586_ENST00000369975|hu_hu|FALSE|FALSE (ssRNA)
RNA: GGGAGUUCUACAGUCCGACGAUCAACAACUGAGCUCUUUUCAUUAAAAUGUAUUUCUACAAAUUUCCCAAAUCGACUGCUAUUAUUGUUGCGAACAGUCUUCGCAUUUCCAAAGGCUUCUAGGAGUGGGUUAGCUUCAACAAUCAACAGAGGAUUGAGCAUCA
B7: chr4:99997526:99997527:-_ENSG00000197894_ENST00000296412|hu_hu|motif|central (ssRNA)
RNA: GGGAGUUCUACAGUCCGACGAUCGGAAUAGUCCACUCCUCCAUCGGUCAUCUCAAUGAGCACUUCCUGGAUGGGUUUACGGAAAUCCUGAGGGUUAAUACAUUCAGUGGCUCCAAACUCUUUGGCCCUUGCAAAUUUAUCUUUCAACAGAGGAUUGAGCAUCA
B8: chr12:39763582:39763583:-_ENSG00000139116_ENST00000544797|hu_mus|hu_hu_hu_mus_False|8_18 (ssRNA)
RNA: GGGAGUUCUACAGUCCGACGAUCCUCUAGGAACUGGGCAUUCACUUUGAAUUCAGGAGGGGGCAGCCCGUUUUUAAUCGCUGAGGUCUUUUUCUCAUCAAUACUCUUGAACAGGUGUUUAACAGCUCGAGAAAUAAUGCCCUGCAACAGAGGAUUGAGCAUCA
B9: chr1:43830971:43830972:-_ENSG00000066322_ENST00000372458|hu_mus|FALSE|FALSE (ssRNA)
RNA: GGGAGUUCUACAGUCCGACGAUCUCGAAGUUGGAAGGGCUUCCGAUUAGCCAUGAUUCGAGGCCCAAGCGAUAGGAUGAAGUACACAUAGGUCAGAAGGAUGGAUGUUAUUAGCAAGGGGGACCCCAUCAGAGGGUAGCUUUGCAACAGAGGAUUGAGCAUCA
B10: chr11:47074021:47074022:+_ENSG00000149179_ENST00000278460|hu_mus|FALSE|FALSE (ssRNA)
RNA: GGGAGUUCUACAGUCCGACGAUCACCAUUUUUCCCUACAGUUCGGAAGCAUCUCCAGAAGGCCCGAAGGAAUGAUGCUCUAUUAUGAGGUGUGGCUUGUAUAAAGCUGAAUUCCCGGAAGAGAAUGUGAGUUCCUUGGCAUACCAACAGAGGAUUGAGCAUCA
B11: 13078290_13078410_1514_3pUTR_ENSMUSG00000030386_ENSMUST00000098822|mouse|control|control (ssRNA)
RNA: GGGAGUUCUACAGUCCGACGAUCUGCCAAUUUUUUGAUGUUCCAUAAAAGAUGAGAAAUAAAAGAUAUUCUCAUAUUCCUUAUAUUUCUCAUACUGGUUUCCUCCAAUUUGAAGUUUGGGGUAUUCAAUAAGUGAUGGGCUCUCAACAGAGGAUUGAGCAUCA
B12: 2404117_2406024_1226_CDS_ENSG00000106263_ENST00000360876|human|control|control (ssRNA)
RNA: GGGAGUUCUACAGUCCGACGAUCAAGGAUGUCCCAGAUGAUUAUGGCCUGAGGGUCAUCCUGCGUGUCCAUCAGGGGGCUAAAGGUCACCAGGUACCUUUCACAAGGUGAGAAGUCAAUAAGCUGAACCCCUUGGUGGCUGAACAACAGAGGAUUGAGCAUCA
B13: 57920494_57920614_1982_CDS_ENSG00000166987_ENST00000355673|human|control|control (ssRNA)
RNA: GGGAGUUCUACAGUCCGACGAUCACCAAAUAAACUGUGGUUGAGCAAUGGAGAAGGUGGAGGCUGCCCCAGACUCAGAGGGAGAGGCAAGGCCCCAAGCAUCCCAGGGAAGCCAGCUCCACUCAGUGCCAGGCCCUGCUCAGGCAACAGAGGAUUGAGCAUCA
B14: chr9:14812383:14812384:-_ENSMUSG00000031934_ENSMUST00000164273|mus_mus|mus_mus_mus_hu_True|78_88 (ssRNA)
RNA: GGGAGUUCUACAGUCCGACGAUCAUAGCCCAGGUAGAUACACGCUAACAGUAUAACCACAAAUGUCAGCAGGCGGCAGCUAAUGUACUUGAUGAUUAAAUUAUUAGAAUUUUUCUUUGUCUUCAAGUACUGCUCCACAAUUGGCAACAGAGGAUUGAGCAUCA

Some of the results follow.

For 14 molecules, binding signal results are on record in publication PMC12136788.

The target of the test is T1, UNK ZnF1-3 (human, UniProt Q9C0B0 31-174).
T1 sequence: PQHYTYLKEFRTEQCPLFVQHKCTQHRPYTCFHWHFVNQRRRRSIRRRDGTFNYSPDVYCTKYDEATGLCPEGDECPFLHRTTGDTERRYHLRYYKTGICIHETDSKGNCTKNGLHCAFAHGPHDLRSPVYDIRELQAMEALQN
In words: nsRBNS (natural sequence RNA bind-n-seq); RBNS binding buffer (assumed for nsRBNS): 25 mM Tris pH 7.5, 150 mM KCl, 3 mM MgCl2, 0.01% Triton X-100, 500 ug/ml BSA, 20 U/ml SUPERase-In, 4 C; UNK is unkempt and MSI1 is Musashi-1; names of the RNAs are library labels; protein concentration not given here; high values mean tight binding.
B1 returned a binding signal of 1.12 enrichment R.
For B2 the value was 0.85 enrichment R.
Molecule B3 displayed a binding signal of 1.09 enrichment R.
Next, B4: 0.841 enrichment R; B5: 1.05 enrichment R.
For B6 the value was 1.04 enrichment R; for B7, 0.86 enrichment R; for B8, 1.43 enrichment R.
With B9, the binding signal was found to be 1.68 enrichment R.
B10: the binding signal was 1.52 enrichment R.
Next, B11: 0.559 enrichment R; B12: 0.527 enrichment R; B13: 1.7 enrichment R.
Turning to B14, the binding signal is 1.57 enrichment R.
